The supplement of paper PMC4604168 (melanoma cell lines)
This is one part of the list. Single values are uncertain, as repeats are few or missing.

Experiments:
Assay in all cases: cell count relative to DMSO control; melanoma cells; higher = more viable cells
Conditions in all cases: library dose: low library concentration; 72 h
[1] = tested on: WM115
[2] = tested on: WM1716
[3] = tested on: WM1745
[4] = tested on: WM3526
[5] = tested on: WM3619
[6] = tested on: WM451Lu
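Also: cell number obtained by counting DAPI-stained nuclei in high-throughput microscope images with image analysis software, screen run in 1,536-well plates.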

| Structure (SMILES) | cell count [1] | cell count [2] | cell count [3] | cell count [4] | cell count [5] | cell count [6] |
| --- | --- | --- | --- | --- | --- | --- |
| NC(=O)Nc1cc(-c2cccc(F)c2)sc1C(=O)N[C@H]1CCCNC1 + CN(NC(=O)CC(=O)NN(C)C(=S)c1ccccc1)C(=S)c1ccccc1 [STA4783] (first compound 0.02 µM, partner dose 0.006 µM) | 81.8% | 69.5% | 55.4% | 85.8% | 48.4% | 83.1% |
| NCC(=O)Nc1ccc(-n2nc(C(F)(F)F)cc2-c2ccc3c(ccc4ccccc43)c2)cc1 + N#Cc1c(O)c2c(-c3ccc(-c4ccccc4O)cc3)csc2[nH]c1=O [A769662] (first compound 1 µM, partner dose 2 µM) | 97% | 100% | 98.7% | 58.9% | 71.6% | 59.6% |
| NC(=O)Nc1cc(-c2cccc(F)c2)sc1C(=O)N[C@H]1CCCNC1 + CN(C)S(=O)(=O)c1ccc2c(c1)/C(=C/c1cc3c([nH]1)CCCC3)C(=O)N2 [SU6656] (first compound 0.02 µM, partner dose 0.4 µM) | 65.6% | 87.2% | 77.8% | 83.9% | 110% | 96% |
| CN(C)S(=O)(=O)c1ccc2c(c1)/C(=C/c1cc3c([nH]1)CCCC3)C(=O)N2 + N#Cc1c(O)c2c(-c3ccc(-c4ccccc4O)cc3)csc2[nH]c1=O [A769662] (first compound 0.4 µM, partner dose 2 µM) | 85.9% | 114% | 80.3% | 94.6% | 119% | 100% |
| NCC(=O)Nc1ccc(-n2nc(C(F)(F)F)cc2-c2ccc3c(ccc4ccccc43)c2)cc1 + O=c1cc(-c2cccc3c2Sc2ccccc2S3)oc(N2CCOCC2)c1 [KU55933] (first compound 1 µM, partner dose 1 µM) | 106% | 97.4% | 111% | 42.2% | 111% | 61.8% |
| OCCn1cc(-c2cnc3nnn(Cc4ccc5ncccc5c4)c3n2)cn1 + CCCCCCCCCCCC1=C(O)C(=O)C=C(O)C1=O [Embelin] (first compound 1 µM, partner dose 1.2 µM) | 94.4% | 109% | 101% | 83.1% | 125% | 105% |
| Cc1nc(Nc2ncc(C(=O)Nc3c(C)cccc3Cl)s2)cc(N2CCN(CCO)CC2)n1 [dasatanib] + CCc1ccc(CCOc2ccc(CC3SC(=O)NC3=O)cc2)nc1 [pioglitazone] (first compound 0.004 µM, partner dose 2 µM) | 76.7% | 81.2% | 66.1% | 83.2% | 76.3% | 66.4% |
| Cc1nc(Nc2ncc(C(=O)Nc3c(C)cccc3Cl)s2)cc(N2CCN(CCO)CC2)n1 [dasatanib] + O=C(O)C(=O)Nc1sc2c(c1C(=O)O)CCNC2 [TCS401] (first compound 0.004 µM, partner dose 1.66667 µM) | 68.5% | 60.3% | 53.3% | 91.4% | 69.8% | 83.2% |
| OCCn1cc(-c2cnc3nnn(Cc4ccc5ncccc5c4)c3n2)cn1 + O=C(Nc1ccccc1)c1cc([N+](=O)[O-])ccc1Cl [GW9662] (first compound 1 µM, partner dose 2 µM) | 93.6% | 107% | 117% | 129% | 173% | 107% |
| CO[C@@H]1[C@H](N(C)C(=O)c2ccccc2)C[C@H]2O[C@]1(C)n1c3ccccc3c3c4c(c5c6ccccc6n2c5c31)C(=O)NC4 [Midostaurin] + O=c1cc(-c2cccc3c2Sc2ccccc2S3)oc(N2CCOCC2)c1 [KU55933] (first compound 0.08 µM, partner dose 1 µM) | 77.3% | 64.3% | 62.2% | 97.4% | 68.5% | 96.3% |
| NCC(=O)Nc1ccc(-n2nc(C(F)(F)F)cc2-c2ccc3c(ccc4ccccc43)c2)cc1 + CCc1ccc(CCOc2ccc(CC3SC(=O)NC3=O)cc2)nc1 [pioglitazone] (first compound 1 µM, partner dose 2 µM) | 91.6% | 96.2% | 86% | 41.9% | 106% | 63.9% |
| C=CCn1c(=O)c2cnc(Nc3ccc(N4CCN(C)CC4)cc3)nc2n1-c1cccc(C(C)(C)O)n1 + Cc1cc(N2CCOCC2)cc2[nH]c(-c3c(NC[C@@H](O)c4cccc(Cl)c4)cc[nH]c3=O)nc12 [BMS536924] (first compound 0.02 µM, partner dose 0.2 µM) | 89.7% | 89.8% | 62.5% | 85.6% | 68.5% | 98% |
| CN(C)S(=O)(=O)c1ccc2c(c1)/C(=C/c1cc3c([nH]1)CCCC3)C(=O)N2 + O=C1NC(=O)/C(=C/c2ccc(-c3ccc(F)cc3O)o2)S1 [AS252424] (first compound 0.4 µM, partner dose 1 µM) | 76.7% | 109% | 82.4% | 102% | 92% | 101% |
| C[C@]1(c2nc3c(C(N)=O)cccc3[nH]2)CCCN1 [Veliparib] + CC(C)CCN1c2nc(Nc3cc(F)c(O)c(F)c3)ncc2N(C)C(=O)C1C [BID1870] (first compound 1.4 µM, partner dose 0.2 µM) | 87.5% | 94.8% | 92.5% | 100% | 104% | 136% |
| OCCn1cc(-c2cnc3nnn(Cc4ccc5ncccc5c4)c3n2)cn1 + c1cc(-c2cnn3cc(-c4ccc(OCCN5CCCCC5)cc4)cnc23)ccn1 [Dorsomorphin] (first compound 1 µM, partner dose 0.4 µM) | 94.6% | 106% | 89.3% | 107% | 114% | 115% |
| NCC(=O)Nc1ccc(-n2nc(C(F)(F)F)cc2-c2ccc3c(ccc4ccccc43)c2)cc1 + Cn1cc(/C=C2\C(=O)Nc3cccnc32)c2ccccc21 [GW441756] (first compound 1 µM, partner dose 0.4 µM) | 99.9% | 110% | 84.4% | 38.8% | 125% | 46.5% |
| Cc1nc(Nc2ncc(C(=O)Nc3c(C)cccc3Cl)s2)cc(N2CCN(CCO)CC2)n1 [dasatanib] + O=C(O)c1ccc(-c2c[nH]c3ncc(-c4ccccc4)cc23)cc1C1CCCC1 [GSK650394] (first compound 0.004 µM, partner dose 0.16 µM) | 75.7% | 68.7% | 62.1% | 97.7% | 88.8% | 91.4% |
| CO[C@@H]1[C@H](N(C)C(=O)c2ccccc2)C[C@H]2O[C@]1(C)n1c3ccccc3c3c4c(c5c6ccccc6n2c5c31)C(=O)NC4 [Midostaurin] + COc1ccc(COc2ccc(Cc3cnc(N)nc3N)cc2OC)cc1 [GW2580] (first compound 0.08 µM, partner dose 1 µM) | 90.8% | 72.4% | 89.4% | 94.5% | 83.3% | 92.6% |
| Cc1nc(Nc2ncc(C(=O)Nc3c(C)cccc3Cl)s2)cc(N2CCN(CCO)CC2)n1 [dasatanib] + O=S(=O)(c1ccccc1)N(CC(F)(F)F)c1ccc(C(O)(C(F)(F)F)C(F)(F)F)cc1 [T0901317] (first compound 0.004 µM, partner dose 1.4 µM) | 67.1% | 69.5% | 52.1% | 77.6% | 98.9% | 83% |
| Cc1nc(Nc2ncc(C(=O)Nc3c(C)cccc3Cl)s2)cc(N2CCN(CCO)CC2)n1 [dasatanib] + Cc1cc([N+](=O)[O-])ccc1NS(=O)(=O)c1cc(Cl)ccc1Cl [FH535] (first compound 0.004 µM, partner dose 1 µM) | 68.7% | 61.5% | 67.4% | 93.1% | 91.6% | 86% |
| C[C@]1(c2nc3c(C(N)=O)cccc3[nH]2)CCCN1 [Veliparib] + CC(C)(C)c1cnc(CSc2cnc(NC(=O)C3CCNCC3)s2)o1 [SNS-032] (first compound 1.4 µM, partner dose 0.01 µM) | 87% | 90.2% | 94.1% | 103% | 79.5% | 92.9% |
| Cc1nc(Nc2ncc(C(=O)Nc3c(C)cccc3Cl)s2)cc(N2CCN(CCO)CC2)n1 [dasatanib] + CC1(C)NC(=O)N(c2ccc([N+](=O)[O-])c(C(F)(F)F)c2)C1=O [nilutamide] (first compound 0.004 µM, partner dose 1 µM) | 79.2% | 75% | 71% | 114% | 96.5% | 89.9% |
| C[C@]1(c2nc3c(C(N)=O)cccc3[nH]2)CCCN1 [Veliparib] + Cc1cc([N+](=O)[O-])ccc1NS(=O)(=O)c1cc(Cl)ccc1Cl [FH535] (first compound 1.4 µM, partner dose 1 µM) | 86.2% | 82.7% | 85.2% | 96.2% | 95.2% | 88.7% |
| Cc1nc(Nc2ncc(C(=O)Nc3c(C)cccc3Cl)s2)cc(N2CCN(CCO)CC2)n1 [dasatanib] + Cc1ccc(NC(=O)c2cccc(N(C)C)c2)cc1NC(=O)c1ccc(O)cc1 [ZM336372] (first compound 0.004 µM, partner dose 2 µM) | 82.5% | 85.2% | 71.9% | 102% | 103% | 85.7% |
| C[C@]1(c2nc3c(C(N)=O)cccc3[nH]2)CCCN1 [Veliparib] + CCCCCCCCCCCC1=C(O)C(=O)C=C(O)C1=O [Embelin] (first compound 1.4 µM, partner dose 1.2 µM) | 93.7% | 85.6% | 77.2% | 116% | 132% | 84.8% |
| C=CCn1c(=O)c2cnc(Nc3ccc(N4CCN(C)CC4)cc3)nc2n1-c1cccc(C(C)(C)O)n1 + CC(C)CCN1c2nc(Nc3cc(F)c(O)c(F)c3)ncc2N(C)C(=O)C1C [BID1870] (first compound 0.02 µM, partner dose 0.2 µM) | 90.9% | 82% | 80.4% | 78.8% | 85.1% | 90.1% |
